Measurements from paper PMC4336329 (PLoS ONE, 2015).
Out of some 310,000 compounds screened, about 2,200 (0.71%) showed an effect of 50% or more. The effect is printed as a negative number. The list shows a part of the results.

Target: human ether-à-go-go-related gene (hERG) potassium channel (human, UniProt Q12809)
Experiment: primary screen, population patch clamp on CHO cells stably expressing hERG

Sequence of human ether-à-go-go-related gene (hERG) potassium channel (Q12809 whole entry, looked up): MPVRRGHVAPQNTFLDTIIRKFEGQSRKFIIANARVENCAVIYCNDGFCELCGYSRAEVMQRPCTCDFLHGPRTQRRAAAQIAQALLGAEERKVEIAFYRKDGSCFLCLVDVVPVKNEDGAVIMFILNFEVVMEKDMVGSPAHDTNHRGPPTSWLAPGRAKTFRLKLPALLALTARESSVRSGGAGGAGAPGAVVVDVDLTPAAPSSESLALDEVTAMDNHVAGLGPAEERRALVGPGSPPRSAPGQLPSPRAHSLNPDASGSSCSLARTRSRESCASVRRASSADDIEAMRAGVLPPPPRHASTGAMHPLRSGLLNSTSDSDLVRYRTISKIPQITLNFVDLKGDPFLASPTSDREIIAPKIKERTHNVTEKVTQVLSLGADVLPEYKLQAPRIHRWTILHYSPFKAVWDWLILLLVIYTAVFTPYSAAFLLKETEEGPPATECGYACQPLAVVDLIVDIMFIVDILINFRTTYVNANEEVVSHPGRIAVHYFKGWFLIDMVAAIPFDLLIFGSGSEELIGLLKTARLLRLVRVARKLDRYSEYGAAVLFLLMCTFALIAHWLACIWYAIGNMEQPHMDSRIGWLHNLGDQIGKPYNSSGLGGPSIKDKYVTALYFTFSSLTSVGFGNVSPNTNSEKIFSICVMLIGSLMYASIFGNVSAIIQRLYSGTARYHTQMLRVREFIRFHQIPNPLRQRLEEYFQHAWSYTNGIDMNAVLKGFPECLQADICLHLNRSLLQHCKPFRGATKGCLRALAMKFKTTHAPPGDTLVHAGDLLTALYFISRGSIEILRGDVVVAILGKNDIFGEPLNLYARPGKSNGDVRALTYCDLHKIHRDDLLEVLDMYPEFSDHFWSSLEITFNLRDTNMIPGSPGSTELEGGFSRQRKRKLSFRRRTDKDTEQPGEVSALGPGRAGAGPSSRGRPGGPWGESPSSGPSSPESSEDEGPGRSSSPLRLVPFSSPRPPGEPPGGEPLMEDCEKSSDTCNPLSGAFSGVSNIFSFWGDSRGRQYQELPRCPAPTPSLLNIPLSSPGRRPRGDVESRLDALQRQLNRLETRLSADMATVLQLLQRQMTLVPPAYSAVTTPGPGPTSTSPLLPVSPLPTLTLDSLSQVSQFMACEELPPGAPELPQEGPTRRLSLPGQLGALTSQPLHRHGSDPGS

| SMILES | hERG current change (%, negative = inhibition) at 1uM [%] |
| --- | --- |
| COc1cc(C2=NOC(C(=O)N3CCCc4ccccc43)C2)cc(OC)c1OC (stereo not drawn) | 10.3 |
| CC(C)(C)OC(=O)NCC12C=CC(O1)C1C(=O)N(Cc3ccccc3)C(=O)C12 (stereo not drawn) | 10.8 |
| Cc1c(Cl)c([N+](=O)[O-])nn1CCCC(=O)NC1CCCCC1 | 11.7 |
| CC(C)c1ccc(N2C(=O)CSC23C(=O)N2CCCc4cccc3c42)cc1 (stereo not drawn) | 19.9 |
| CC1CN(c2nn3c(=O)c4ccccc4nc3c3ccccc23)CC(C)O1 (stereo not drawn) | -0.465 |
| CCCCN1C2CCCC1CC(NC(=O)C1CCCCC1)C2 (stereo not drawn) | 0.0034 |
| Cc1ccc(CNC(=O)COC(=O)c2cc(C)oc2C)cc1 | 13.1 |
| Cc1ccc(N(C(=O)c2csnn2)C(C(=O)NC2CCCCC2)c2cccnc2)cc1 (stereo not drawn) | 0.643 |
| COc1ccc(S(=O)(=O)N(CC(=O)NCc2ccco2)c2ccc(C)cc2)cc1OC | 14.7 |
| O=C(CSc1n[nH]c(-c2ccco2)n1)Nc1ccccc1 | -4.85 |
| CCN(CC)S(=O)(=O)c1ccc2c(c1)N(CC(=O)NCCN1CCOCC1)C(=O)CO2 | 18.8 |
| Cl.Clc1ccccc1CNC1CN2CCC1CC2 (stereo not drawn) | 11.7 |
| CCCOC(=O)c1[nH]c2c(c1C)C(=O)CC(c1cc(OC)c(OC)c(OC)c1)C2 (stereo not drawn) | 7.64 |
| O=C(c1ccc(Cn2c(=O)[nH]c3ccccc3c2=O)cc1)N1CCN(c2ccc(Cl)cc2)CC1 | 5.43 |
| COC(=O)C(CC(C)C)NC(=O)CNC(=O)c1ccccc1C (stereo not drawn) | 7.11 |
| CCC1CCCCN1C(=O)CSc1nc(N)cc(N)n1 (stereo not drawn) | 19.4 |
| Cc1cccc(NC(=S)N2CCN(c3ccccc3F)CC2)c1C | 8.16 |
| Cc1onc(-c2c(Cl)cccc2Cl)c1C(=O)NC1CCCCC1 | 4.95 |
| O=C(c1ccc(F)cc1)N1CCCC(c2nc(-c3cccs3)no2)C1 (stereo not drawn) | 12.1 |
| O=C1CCC([N+](=O)[O-])C(c2ccc(C(F)(F)F)cc2)N1 (stereo not drawn) | 7.21 |
| OCC[C@H]1C[C@H](O)[C@@H](O)[C@]2(CCCCO2)O1 | 14.5 |
| Cc1cccc(N/N=C/c2ccncc2)c1 | 7.08 |
| COC(=O)Nc1ccc(S(=O)(=O)N(C)CC(F)(F)C(F)F)cc1 | 7.12 |

| SMILES | hERG current change (%, negative = inhibition) at 1uM [%] |
| --- | --- |
| CC12CCC(C(=O)N3CCN(C(c4ccccc4)c4ccccc4)CC3)(OC1=O)C2(C)C (stereo not drawn) | 12.9 |
| O=C(Nc1ccon1)c1csc2c1CCCC2 | -6.98 |
| CC(C)C(=O)Nc1cccc(NC(=O)c2cccnc2)c1 | -1.01 |
| CCCc1nnc(NC(=O)COC(=O)c2cc(C)nc3ccccc23)s1 | 8.02 |
| O=C(NCC1CCCO1)C(C(=O)c1ccccc1)n1ccccc1=O (stereo not drawn) | 7.06 |
| C=CCn1cnc2c(sc3nc(C)cc(C)c32)c1=O | 13.9 |
| COC(=O)c1ccc(C(=O)OC)c(NC(=O)c2cnc3n(c2=O)CCS3)c1 | 12.2 |
| O=C(O)CCC(=O)NCCc1cccc(Cl)c1 | 12.9 |
| O=S(=O)(c1ccc(Cl)cc1Br)N1CCCCC1 | -0.793 |
| CC(=O)c1cccc(N2C(=NC(=O)CCc3ccccc3)SC3CS(=O)(=O)CC32)c1 (stereo not drawn) | 21.2 |
| CCOc1ncccc1C(=O)Nc1ccc(OC)c(S(=O)(=O)N2CCCCC2)c1 | 12.9 |
| CN1CCN(CC/C=C2\c3ccccc3Sc3ccc(S(=O)(=O)N(C)C)cc32)CC1 | -6.73 |
| CCCCc1ccc(NC(=S)N2CCCC(CO)C2)cc1 (stereo not drawn) | 10.3 |
| CN(C(=O)CSCC(=O)O)C1CCCCC1 | 2.98 |
| O=C(NCCc1ccccn1)C1CCCN1S(=O)(=O)c1ccc(Cl)cc1 (stereo not drawn) | 12 |
| CCOc1ccccc1NC(=O)COc1coc(CN2CCc3ccccc32)cc1=O | 11.6 |
| CC(C)(C)n1nc2c(c1NC(=O)c1ccccc1C(F)(F)F)CS(=O)(=O)C2 | 9.78 |
| Cn1cccc1C(=S)N1CCOCC1 | 5.05 |
| CC1Cc2nc(SCC(=O)Nc3ccc(F)cc3)n(C)c(=O)c2S1 (stereo not drawn) | 3.18 |
| COCCNC(=O)c1ccccc1N(Cc1ccccc1)S(=O)(=O)c1ccc(C)cc1 | 5.11 |
| O=C(Nc1ccccc1C(=O)Nc1ccncc1)c1ccccc1 | 11 |
| CC1CC2C3CCC4=CC(=O)C=CC4(C)[C@@]3(Cl)C(O)CC2(C)C1(O)C(=O)CO (stereo partly drawn) | 11.3 |
